The list shows a part of the results.

The subject of the assay is PfHDP1 homeodomain (GST-tagged). The experiment in a line: gcPBM binding intensity (ln(normalized median fluorescence intensity)); higher = stronger DNA binding. The gist of the method:
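Binding intensity is defined as the maximum Masliner-normalised natural-log median intensity across replicate spots for either probe orientation. It was measured on an Agilent 4 × 180k array of primer-extended double-stranded 36-bp intergenic genomic probes and negative controls, to which GST-tagged P. falciparum DNA-binding domains made in E. coli were applied for 1 h in 1× PBS with 1% milk, 0.2 mg/ml BSA, 0.5% salmon testes DNA and 0.03% Triton X-100. Detection was by Alexa488 anti-GST antibody and scanning at 488 nm.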
Regarding “AACCAATATGCGTATACACACATAAATATAAATATA [CACACA_site3780]”, the “gcPBM binding intensity (ln)” value was 6.67.

On to “AATAGAATAATCCTTACACACACACCCACACGAATA [CACACA_site8053]”, for which the “gcPBM binding intensity (ln)” value worked out at 7.05.

Regarding “TGTATAAAAAGAAAAAATCGTATGTGTTATCAAAAA [GTGCAC_negctrl_site490]”, the “gcPBM binding intensity (ln)” value is 6.32.

With “ACGATTCAAAGGGAATATAAAATATTATTATCTATA [CACACA_negctrl_site1739]”, the “gcPBM binding intensity (ln)” value came to 6.06.

Consider “AAAAAAAAAAAAAAAAAAAAAAAAAAAAATAAAAAA [CACACA_negctrl_site59]”, for which the “gcPBM binding intensity (ln)” value stood at 6.93.

As to “AAAATATTTAATAGAAGTACACATGTATATATACAT [XGTACX_site8942]”, the “gcPBM binding intensity (ln)” value was found to be 6.35.

For “TATATTAACAAAATGGTGCAATAATTTCTATATTGT [GTGCAC_site9430]”, the “gcPBM binding intensity (ln)” value is 10.4.

Turning to “TGTGTAAGCACATACAAACACACAACCTTATTTTTA [CACACA_site2187]”, the “gcPBM binding intensity (ln)” value was determined as 6.47.

For “TTATTATATTAAAAGAGGACACATTTATTTTTTTTT [XGTACX_site1241]”, the “gcPBM binding intensity (ln)” value amounted to 5.87.

As to “ATATATATATATATATGTACATAATATATTATATAT [XGTACX_site924]”, the “gcPBM binding intensity (ln)” value was 9.25.

Consider “TTATTATATACAAAATGTACACAGAATAATTTGAAT [XGTACX_site2314]”, for which the “gcPBM binding intensity (ln)” value amounted to 6.21.

On to “TTTTTTTTTTTTTTGGTGCAGTTCACATATTATATA [GTGCAC_site9996]”, for which the “gcPBM binding intensity (ln)” value was found to be 7.51.

“AGATCATAATATTATACACACATTATATATCTGTAA [CACACA_site4925]”: the “gcPBM binding intensity (ln)” value stood at 6.85.

For the sequence “TAATAAATTCAAAACATAAAAAGGAAAAAAAAAAAA [CACACA_negctrl_site1330]”, the “gcPBM binding intensity (ln)” value came out at 6.04.

With “TGAATACAGATATTCACACAAATAGTTTTGATATAT [CACACA_site5527]”, the “gcPBM binding intensity (ln)” value is 6.14.

As to “TAATATCTTGAGTCATCACACATTGATTAATGAATC [CACACA_site5735]”, the “gcPBM binding intensity (ln)” value is 5.88.

For the sequence “AAAAAAATATATAATAGTACATATATAGGAATATAT [XGTACX_site4591]”, the “gcPBM binding intensity (ln)” value was 6.16.

Turning to “CTTTTTTTTTTTTTTGCACACACATATATAAATATA [CACACA_site3950]”, the “gcPBM binding intensity (ln)” value stood at 10.6.

With “AGTGGAAATTTTATTTGTACATAAATATTTACATAC [XGTACX_site633]”, the “gcPBM binding intensity (ln)” value was found to be 6.2.

For “ATTTTTTTTTAATGCAATATATTTTGAAAATTTTAT [CACACA_negctrl_site753]”, the “gcPBM binding intensity (ln)” value stood at 7.02.

As to “TTTTTTTTTTTTTTTACACACTTTATTCAAACAACT [CACACA_site4104]”, the “gcPBM binding intensity (ln)” value worked out at 6.64.

For the sequence “ATATATATATATATTTGTACTTAATTGATTTTACTT [XGTACX_site2663]”, the “gcPBM binding intensity (ln)” value is 9.1.

Regarding “ATGCGTTTAGCAAAAAGTACATATATATATAATATT [XGTACX_site1928]”, the “gcPBM binding intensity (ln)” value stood at 6.5.

In the case of “TTGAAATACTTTATTTGTACATATAGCAAAGTGTAT [XGTACX_site8782]”, the “gcPBM binding intensity (ln)” value was 6.5.

With “ATTTTTTCTAGACATGCATGTGAAATTTACTTTTTT [TGCATGCA_site305]”, the “gcPBM binding intensity (ln)” value stood at 6.37.

Turning to “ATTATTGATTTATAAACACACACTCGAAGATGTTTA [CACACA_site8294]”, the “gcPBM binding intensity (ln)” value was 6.44.

In the case of “CTTTCTCTCAAAATGACATGCAATTTGTTTCTTTTT [TGCATGCA_site169]”, the “gcPBM binding intensity (ln)” value amounted to 6.52.

Consider “AATATGGAATGAAATAACAATCGGGAGTATATTACC [CACACA_negctrl_site93]”, for which the “gcPBM binding intensity (ln)” value turned out to be 6.85.

As to “TATATATATGTTCTTACACACACGAATATATATATG [CACACA_site3304]”, the “gcPBM binding intensity (ln)” value turned out to be 6.7.

Turning to “ACATATTGTAGATATTGTACATATTGTGTATATATT [XGTACX_site7620]”, the “gcPBM binding intensity (ln)” value amounted to 6.8.

Take “TTGGCATACAGACACACACACACACCCCCACATATA [CACACA_site590]”: the “gcPBM binding intensity (ln)” value came out at 7.22.

With “ATTGATACATCCAATACACACTACATATTATGATGT [CACACA_site6965]”, the “gcPBM binding intensity (ln)” value turned out to be 6.6.

Take “AATTTATTAAAAAAATGTACTTATTTTTTTGTATAA [XGTACX_site5844]”: the “gcPBM binding intensity (ln)” value was found to be 6.09.

For the sequence “TTTTTTTTTTTTTTTTTTTTTTTTTCATATTAATAT [GTGCAC_negctrl_site351]”, the “gcPBM binding intensity (ln)” value amounted to 6.13.

On to “TTAATATTTTGATGTGTACACATTAAAATAGTTTTA [CACACA_site5712]”, for which the “gcPBM binding intensity (ln)” value is 6.36.

Regarding “TAAATATATATATGGTGTACCATTTTGGGTTAATAT [XGTACX_site2706]”, the “gcPBM binding intensity (ln)” value is 6.63.

“GGGAGGATATTTCACAGTACCCAGGAAATCTGCGGA [XGTACX_site2555]”: the “gcPBM binding intensity (ln)” value came out at 6.37.

Take “TATATTATTTTTTATTGTACTTAAAAATATTATTTG [XGTACX_site1443]”: the “gcPBM binding intensity (ln)” value came to 6.16.

As to “TTAAATAGCTGTAATTGTACAAATAAATACATAAAT [XGTACX_site3097]”, the “gcPBM binding intensity (ln)” value is 6.69.

Take “TATAGTAATATTTGAAGTACAAAATTAAAATAAATA [XGTACX_site7634]”: the “gcPBM binding intensity (ln)” value was 6.29.

Take “TTATATAAGGTCTATATATAAATATTAATGATAAGG [TGCATGCA_negctrl_site354]”: the “gcPBM binding intensity (ln)” value was determined as 6.58.

“TATAAATAATTATATTGTACTCTTTATATTTTTCTT [XGTACX_site5335]”: the “gcPBM binding intensity (ln)” value was found to be 6.53.

As to “AGAAGTTTATCTTTTAGTACGCATAAAAAAAAAAAA [XGTACX_site2359]”, the “gcPBM binding intensity (ln)” value came out at 6.69.

For “TTTTATGCTCAATTATTAAGAAATACTTTTTCTTCC [XGTACX_negctrl_site208]”, the “gcPBM binding intensity (ln)” value was 9.78.

For the origin of these results see the supplement of paper PMC11417369.
